Here are results for seven molecules from publication PMC5016123.

These are yes or no findings as the source states them, for the method shown. In cells and extracts the contact can be indirect. Some entries that bind do so weakly or less than the wild type. Sequences can lack the tags named with a protein.

Assay [1] has as its target T1, GST-fused polo-box domain (PBD) of Cdc5, wild type (S. cerevisiae) (UniProt P32562).
T1 sequence: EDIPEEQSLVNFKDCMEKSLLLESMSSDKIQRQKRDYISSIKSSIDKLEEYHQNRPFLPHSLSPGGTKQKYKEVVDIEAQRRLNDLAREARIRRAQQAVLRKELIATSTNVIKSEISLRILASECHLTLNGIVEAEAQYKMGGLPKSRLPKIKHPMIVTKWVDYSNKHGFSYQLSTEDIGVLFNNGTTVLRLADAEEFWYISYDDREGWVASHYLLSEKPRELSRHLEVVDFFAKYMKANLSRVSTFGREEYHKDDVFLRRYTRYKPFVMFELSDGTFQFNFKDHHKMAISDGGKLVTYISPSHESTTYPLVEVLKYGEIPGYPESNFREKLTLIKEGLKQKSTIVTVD
Kind of assay: pull-down; GST-fused PBD, Cdc5 or GST only and an HA-tagged cohesin subunit or Scc1 fragment co-overexpressed in G2/M-arrested (benomyl) yeast cells; clarified lysate on glutathione-Sepharose 4B beads 1 h at 4 °C; 40 mM Hepes-KOH pH 7.4, 140 mM NaCl, 10% glycerol, 0.1% Triton X-100, 1 mM DTT, protease and phosphatase inhibitors; three washes; anti-HA and anti-GST Western blot. A general note: In western blotting, separated proteins are transferred to a membrane and probed.

Assay [2] deals with T2, GST-fused polo-box domain (PBD) of Cdc5 carrying the mut1 mutation (W517F, V518A, L530A) (S. cerevisiae) (UniProt P32562).
T2 sequence: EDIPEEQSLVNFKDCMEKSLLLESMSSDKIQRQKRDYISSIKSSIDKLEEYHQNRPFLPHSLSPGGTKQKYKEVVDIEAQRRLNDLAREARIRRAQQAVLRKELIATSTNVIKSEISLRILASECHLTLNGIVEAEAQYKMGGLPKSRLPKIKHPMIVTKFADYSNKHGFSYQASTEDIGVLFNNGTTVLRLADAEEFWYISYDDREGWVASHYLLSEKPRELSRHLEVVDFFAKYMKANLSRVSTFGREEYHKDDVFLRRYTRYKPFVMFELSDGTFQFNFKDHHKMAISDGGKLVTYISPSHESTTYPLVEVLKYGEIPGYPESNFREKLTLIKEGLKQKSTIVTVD
The description is as above.

B1: HA-tagged Scc1 fragment NM (amino acids 1-269) (domain or fragment, UniProt Q12158 1-269)
chain: MVTENPQRLTVLRLATNKGPLAQIWLASNMSNIPRGSVIQTHIAESAKEIAKASGCDDESGDNEYITLRTSGELLQGIVRVYSKQATFLLTDIKDTLTKISMLFKTSQKMTSTVNRLNTVTRVHQLMLEDAVTEREVLVTPGLEFLDDTTIPVGLMAQENSMERKVQGAAPWDTSLEVGRRFSPDEDFEHNNLSSMNLDFDIEEGPITSKSWEEGTRQSSRNFDTHENYIQDDDFPLDDAGTIGWDLGITEKNDQNNDDDDNSVEQGRR
As for B1, the binding result in assay [1] is on record as “binds”.

B2: HA-tagged Scc1 M fragment with five serines substituted to alanine (M-5A) (domain or fragment, UniProt Q12158 158-275)
chain: QENSMERKVQGAAPWDTSLEVGRRFAPDEDFEHNNLAAMNLDFDIEEGPITSKSWEEGTRQAARNFDTHENYIQDDDFPLDDAGTIGWDLGITEKNDQNNDDDDNSVEQGRRLGESIM
In the case of B2, the binding entry in assay [1] is recorded as “binds weakly”.

B3: HA-tagged Scc1 M fragment with alanine substitution of the two Cdc5 phosphorylation sites (M-plk(−)) (domain or fragment, UniProt Q12158 158-275)
chain: QENSMERKVQGAAPWDTALEVGRRFSPDEDFEHNNLSSMNLDFDIEEGPITSKSWEEGTRQSSRNFDTHENYIQDDDFPLDDAGTIGWDLGITEKNDQNNDDDDNAVEQGRRLGESIM
modifications: slowly migrating (phosphorylated) forms still present; sites not determined
Consider B3, for which, in assay [1], the binding entry is “binds”.

B4: HA-tagged cohesin subunit Smc3 (protein, UniProt P47037 1-1230)
chain: MYIKRVIIKGFKTYRNETIIDNFSPHQNVIIGSNGSGKSNFFAAIRFVLSDDYSNLKREERQGLIHQGSGGSVMSASVEIVFHDPDHSMILPSGVLSRGDDEVTIRRTVGLKKDDYQLNDRNVTKGDIVRMLETAGFSMNNPYNIVPQGKIVALTNAKDKERLQLLEDVVGAKSFEVKLKASLKKMEETEQKKIQINKEMGELNSKLSEMEQERKELEKYNELERNRKIYQFTLYDRELNEVINQMERLDGDYNNTVYSSEQYIQELDKREDMIDQVSKKLSSIEASLKIKNATDLQQAKLRESEISQKLTNVNVKIKDVQQQIESNEEQRNLDSATLKEIKSIIEQRKQKLSKILPRYQELTKEEAMYKLQLASLQQKQRDLILKKGEYARFKSKDERDTWIHSEIEELKSSIQNLNELESQLQMDRTSLRKQYSAIDEEIEELIDSINGPDTKGQLEDFDSELIHLKQKLSESLDTRKELWRKEQKLQTVLETLLSDVNQNQRNVNETMSRSLANGIINVKEITEKLKISPESVFGTLGELIKVNDKYKTCAEVIGGNSLFHIVVDTEETATLIMNELYRMKGGRVTFIPLNRLSLDSDVKFPSNTTTQIQFTPLIKKIKYEPRFEKAVKHVFGKTIVVKDLGQGLKLAKKHKLNAITLDGDRADKRGVLTGGYLDQHKRTRLESLKNLNESRSQHKKILEELDFVRNELNDIDTKIDQVNGNIRKVSNDRESVLTNIEVYRTSLNTKKNEKLILEESLNAIILKLEKLNTNRTFAQEKLNTFENDLLQEFDSELSKEEKERLESLTKEISAAHNKLNITSDALEGITTTIDSLNAELESKLIPQENDLESKMSEVGDAFIFGLQDELKELQLEKESVEKQHENAVLELGTVQREIESLIAEETNNKKLLEKANNQQRLLLKKLDNFQKSVEKTMIKKTTLVTRREELQQRIREIGLLPEDALVNDFSDITSDQLLQRLNDMNTEISGLKNVNKRAFENFKKFNERRKDLAERASELDESKDSIQDLIVKLKQQKVNAVDSTFQKVSENFEAVFERLVPRGTAKLIIHRKNDNANDHDESIDVDMDAESNESQNGKDSEIMYTGVSISVSFNSKQNEQLHVEQLSGGQKTVCAIALILAIQMVDPASFYLFDEIDAALDKQYRTAVATLLKELSKNAQFICTTFRTDMLQVADKFFRVKYENKISTVIEVNREEAIGFIRGSNKFAEV
For the molecule B4, the binding result in assay [2] and in assay [1] was “no binding” each time.

B5: HA-tagged Scc1 M fragment M-10A+plk(−) (domain or fragment, UniProt Q12158 158-275)
chain: QENAMERKVQGAAPWDAALEVGRRFSPDEDFEHNNLSSMNLDFDIEEGPIAAKAWEEGARQSSRNFDAHENYIQDDDFPLDDAGAIGWDLGIAEKNDQNNDDDDNAVEQGRRLGEAIM
As for B5, the binding entry in assay [1] is reported as “binds weakly”.

B6: HA-tagged cohesin subunit Scc3 (protein, UniProt P40541 1-1150)
chain: MTAVRRSTRIRTKSQVIEEDYDDEQNTSAQHVESDKITAKTQHEEEEEQDTGESEESSSEDDYEDQDDDDYVDTATAKRKSRKRKPKSASNTSSKRQKKKPTSAQKSAVSHAPAYHRSKKDQDQYLEIAKDFQPTELFDILSTSEDVSIEELLREWLETYSENRDKFLQEFINLLLNCCGSVARVEDHDVHSNESSNETIGEIQLLFQRQKLHEFYLLISKENKKRKNFKMGPLYQNFAEFMTKLLEVANDLQLLYVESDEDDTQIVTGNLVLDLLTWLSSFSVCKIRCFRYISTLTLYLFQDYLTQQAVNLEKNYLAKLSKQLSLEEKKKRPNNKTLEKLESTIAETQGSKVVIDSIIDNIVKLCFVHRYKDVSDLIRSESMLHLSIWIKNYPEYFLKVTFLKYFGWLLSDNSVSVRLQVTKILPHLIIQNHNSKSTDNSAIRQVFERFKTKILEVAIRDVNLDVRIHSIQVLTEASSLGYLDDSEILIISSLMFDEEFDPFKTSSFNKRSKFLSTVAKFLARVIKEKFDEFIKTHEDLPKEVDGLEVGPVVQVGIFIKILNDSLIYHLKDCAEVDSRTKIRMLTQAAEFLSPYISTHLKTICNLLISDTESNELIQKLQNSANNNSDDEDVDDEELDITPLFPIDRNSTILYLNVFHGLCAGANNPKIQTKDSVKEIVLPLFYDLLNAASIESADILCPLLESFITFSLDDWISIGYETELKKITDKTIKAFMDSTIGNSKVDMKYDIFAKFIHHIHHFEKKELQEKFLNQIATLKIHLKKFLQEKMDPNNSRDDYKDLTCSLYELYINKLTILGRDYPIEVDEELLQLFLNNFVSRIPIMFQDFDDSTAQEINFKMLVLLATWNLEKWREIIEKVRDYENSISKDLRSVWKPIAAIIGRLNTLVISLAATNETFENINSLFYLKWSACTSLMDIIVAIKIFELKLPADATTWRYSMSEQFPFYLHDNASKVLLKIFLYLESLFAKQVDVQLERVADEDANLNDLPETGFFENIETEFLLFTVKLKGLMKLNILDERFASRVALNKEKLGPLFKKIVDDTIMENPEPNKKNIQKAKSNQTQREKAPLQPNSERETDHANTENNDPDIPMTIDLEPIEESSQNNSELAPIEEHPTVVDAIDNSDEITQD
B6: the binding result in assay [1] is “no binding”.

B7: HA-tagged cohesin subunit Smc1 (protein, UniProt P32908 1-1225)
chain: MGRLVGLELSNFKSYRGVTKVGFGESNFTSIIGPNGSGKSNMMDAISFVLGVRSNHLRSNILKDLIYRGVLNDENSDDYDNEGAASSNPQSAYVKAFYQKGNKLVELMRIISRNGDTSYKIDGKTVSYKDYSIFLENENILIKAKNFLVFQGDVEQIAAQSPVELSRMFEEVSGSIQYKKEYEELKEKIEKLSKSATESIKNRRRIHGELKTYKEGINKNEEYRKQLDKKNELQKFQALWQLYHLEQQKEELTDKLSALNSEISSLKGKINNEMKSLQRSKSSFVKESAVISKQKSKLDYIFKDKEKLVSDLRLIKVPQQAAGKRISHIEKRIESLQKDLQRQKTYVERFETQLKVVTRSKEAFEEEIKQSARNYDKFKLNENDLKTYNCLHEKYLTEGGSILEEKIAVLNNDKREIQEELERFNKRADISKRRITEELSITGEKLDTQLNDLRVSLNEKNALHTERLHELKKLQSDIESANNQEYDLNFKLRETLVKIDDLSANQRETMKERKLRENIAMLKRFFPGVKGLVHDLCHPKKEKYGLAVSTILGKNFDSVIVENLTVAQECIAFLKKQRAGTASFIPLDTIETELPTLSLPDSQDYILSINAIDYEPEYEKAMQYVCGDSIICNTLNIAKDLKWKKGIRGKLVTIEGALIHKAGLMTGGISGDANNRWDKEEYQSLMSLKDKLLIQIDELSNGQRSNSIRAREVENSVSLLNSDIANLRTQVTQQKRSLDENRLEIKYHNDLIEKEIQPKITELKKKLDDLENTKDNLVKEKEALQNNIFKEFTSKIGFTIKEYENHSGELMRQQSKELQQLQKQILTVENKLQFETDRLSTTQRRYEKAQKDLENAQVEMKSLEEQEYAIEMKIGSIESKLEEHKNHLDELQKKFVTKQSELNSSEDILEDMNSNLQVLKRERDGIKEDIEKFDLERVTALKNCKISNINIPISSETTIDDLPISSTDNEAITISNSIDINYKGLPKKYKENNTDSARKELEQKIHEVEEILNELQPNARALERYDEAEGRFEVINNETEQLKAEEKKILNQFLKIKKKRKELFEKTFDYVSDHLDAIYRELTKNPNSNVELAGGNASLTIEDEDEPFNAGIKYHATPPLKRFKDMEYLSGGEKTVAALALLFAINSYQPSPFFVLDEVDAALDITNVQRIAAYIRRHRNPDLQFIVISLKNTMFEKSDALVGVYRQQQENSSKIITLDLSNYAE
B7: the binding result in assay [2] and in assay [1] was “no binding” each time.
